# Test results from publication PMC6919601, “Identification of Plasmodium dipeptidyl aminopeptidase allosteric inhibitors by high throughput screening” (PLoS ONE, 2019).
# Screen size: about 110,000 compounds; about 230 (0.21%) showed an effect of 50% or more. The list shows a part of the results.
# Molecular target: DPAP1 (Plasmodium falciparum, UniProt Q8IIJ9)
# Test: primary screen, percent inhibition; read by cleavage of a fluorogenic dipeptide substrate; higher = more effect of the substance
# Parameters: species or system P. falciparum D10 trophozoite lysates; single well
# 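Note: 30 min substrate incubation versus DMSO and 10 µM JCP410 controls.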
# DPAP1, sequence (Q8IIJ9 whole entry, looked up): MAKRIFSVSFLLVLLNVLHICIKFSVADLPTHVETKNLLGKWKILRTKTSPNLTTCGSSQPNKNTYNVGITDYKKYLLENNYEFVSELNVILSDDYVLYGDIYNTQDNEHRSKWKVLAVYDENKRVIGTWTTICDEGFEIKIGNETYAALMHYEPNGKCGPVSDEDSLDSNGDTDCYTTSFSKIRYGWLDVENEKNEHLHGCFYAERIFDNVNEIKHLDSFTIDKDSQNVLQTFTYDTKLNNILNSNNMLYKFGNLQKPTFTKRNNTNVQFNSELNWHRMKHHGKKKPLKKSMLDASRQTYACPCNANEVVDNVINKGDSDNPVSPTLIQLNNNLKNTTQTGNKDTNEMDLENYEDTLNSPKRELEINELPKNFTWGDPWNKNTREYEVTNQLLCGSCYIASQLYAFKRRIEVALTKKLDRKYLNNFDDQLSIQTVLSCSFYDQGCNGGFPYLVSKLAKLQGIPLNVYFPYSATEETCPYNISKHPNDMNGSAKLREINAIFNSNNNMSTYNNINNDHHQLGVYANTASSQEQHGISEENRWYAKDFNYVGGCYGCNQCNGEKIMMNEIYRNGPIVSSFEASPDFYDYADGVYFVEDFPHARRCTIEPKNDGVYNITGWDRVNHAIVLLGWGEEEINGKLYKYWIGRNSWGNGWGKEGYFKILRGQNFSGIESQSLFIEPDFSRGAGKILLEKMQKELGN
row,Compound,% Inhibition @ 10 uM
1,O=C(COc1ccc(Cl)cc1)NCCCc1ccccc1,-5.34%
2,Cc1[nH]c2ccccc2c1Cc1nnc(SCc2ccccc2)o1,0.564%
3,COc1cc(C(=O)NCc2nc(-c3ccc(C)cc3)no2)cc(OC)c1OC,-2.99%
4,CC(C)CCNC(=O)C1C2C=CC3(CN(Cc4cccnc4)C(=O)C13)O2 (stereo not drawn),-5.8%
5,COc1ccc(N(CC(=O)Nc2c(C)cccc2C)S(C)(=O)=O)cc1OC,0.324%
6,NS(=O)(=O)c1ccc(Cl)c(C(=O)Nc2cccc([N+](=O)[O-])c2)c1,-3.52%
7,CCOc1ccc2nc(NC(=O)C3CC3)sc2c1,-3.5%
8,Nc1cccc(NC(=O)c2cccc(Cl)c2)c1,3.32%
9,O=C(O)CCCN1C(=O)c2cccc3cccc(c23)C1=O,-4.27%
10,O=C(c1ccccc1-n1cccc1)N1N=C(C(F)F)CC1(O)C(F)F (stereo not drawn),-3.71%
11,COC(=O)C1=C(NC(=O)c2ccc(S(=O)(=O)N3CCOCC3)cc2)CCS1,-0.053%
12,CCCCSC1=C(C#N)C(=O)NC(c2ccc(C(=O)O)cc2)S1 (stereo not drawn),-5.41%
13,CCN(CCCNC(=O)Cn1nc(Cc2ccncc2)c2ccccc2c1=O)Cc1ccccc1,5.09%
14,COc1ccc(-c2noc(CNC(=O)COc3ccc(C)cc3Br)n2)cc1,3.74%
15,Cc1cc(Nc2cccc(C(=O)O)c2)nc2ccccc12,-2.91%
16,COc1ccc(-c2cc(C(F)F)n3ncc(C(=O)NCCCN4CCOCC4)c3n2)cc1,-4.62%
17,COc1ccc(/C=C2\SC(=O)N(Cc3ccc(F)cc3)C2=O)cc1OC,0.24%
18,Cc1ccc(CCP(=O)(O)CN2CCCCC2)cn1,5.3%
19,O=C(O)CSc1nc2c(cnn2-c2ccccc2)c(=O)n1-c1ccc(F)cc1,4.61%
20,Cc1ccc(CSc2nc3ccsc3c(=O)n2Cc2ccccn2)cc1,-3.49%
21,CCSCCO/C(O)=C1\C(C)=NC2=C(C(=O)CCC2)C1c1ccc(OCCO)c(OC)c1 (stereo not drawn),6.51%

row,Compound,% Inhibition @ 10 uM
1,CC(=O)N1CCC2(CC1)OC(=O)C(C)=C2C(=O)N1CCCC1,2.37%
2,Cc1cc(C)c(C(=O)/C=C(\N2CCCC2)C(F)(F)F)c(O)n1,3.38%
3,CCCCNC(=O)C1CC(=O)N(C2CCCCCC2)C1 (stereo not drawn),0.387%
4,CCOC(=O)C1=C(CNCc2ccccc2Cl)NC(=O)NC1c1cc(C)ccc1C (stereo not drawn),-2.63%
5,N#C/C(=C\c1c(Oc2ccc(Cl)cc2)nc2ccccn2c1=O)C(=O)NCc1ccco1,-0.828%
6,O=C(c1cc(S(=O)(=O)N2CCCC2)c(Cl)cc1Cl)N1CCCC1,4.11%
7,Cc1cccc(N2CCN(C(=O)c3cccnc3Cl)CC2)c1C,-5.85%
8,N#Cc1cc2c(=O)n3ccccc3nc2n(Cc2ccc(F)cc2)c1=O,-2.28%
9,CC1=C(C(=O)Nc2cccnc2)C(c2cccnc2)n2nc(SCc3ccccc3Cl)nc2N1 (stereo not drawn),-1.43%
10,COc1ccc(C)cc1S(=O)(=O)NCCN1CCOCC1,-1.92%
11,Cc1c(C)n(CC(O)CNC2CCCCC2C)c2ccccc12 (stereo not drawn),-5%
12,COc1ccc(Br)cc1Cn1nnc(C(=O)NCc2ccccc2)c1N,1.26%
13,CCOC(=O)N1CCC(/N=c2\c(O)c(O)\c2=N/CCc2ccc(S(N)(=O)=O)cc2)CC1,5.09%
14,COC(=O)/C(=C/c1ccco1)NC(=O)c1ccccc1OC,-7.45%
15,Cc1ccc(C(=O)N2CCN(c3ccc(F)cc3)CC2)cc1[N+](=O)[O-],0.273%
16,O=C(CSCc1ccc(F)cc1)N1CCOCC1,-1.21%
17,COc1ccc(-c2nc3ccccc3nc2O)cc1,0.962%
18,Cc1c(C(=O)N2CCCC(C)C2)sc2ncnc(N3CCCCC3C)c12 (stereo not drawn),-0.458%
19,C=CCNc1nc(Cl)nc(NC(C)(C)C)n1,-4.66%
20,CN1C(=O)C(=CNc2cc(Cl)ccc2C(=O)c2ccccc2)C(=O)N(C)C1=O,7.18%
21,Cc1cc(S(=O)(=O)NCCCSC2CCCCC2)ccc1F,5.23%

row,Compound,% Inhibition @ 10 uM
1,CN(CCO)S(=O)(=O)c1ccc(N)cc1,-0.833%
2,O=S(=O)(Nc1cc(Cl)ccc1Cl)c1ccccc1,6.18%
3,CC1=C(C(=O)OCCOc2ccccc2)C(c2cccc(F)c2F)CC(=O)N1 (stereo not drawn),-1.62%
4,O=C(NCc1ccccc1)c1ccc(COc2ccccc2Cl)o1,-14.6%
5,N#Cc1c(NC(=O)CO/N=C/c2ccccc2)oc(-c2ccccc2)c1-c1ccccc1,-0.142%
6,COc1ccc(CNC(=O)c2nc(S(=O)(=O)Cc3ccc(F)cc3)ncc2Cl)cc1,-4.54%
7,NC(=O)c1c(NC(=O)c2cccnc2Cl)sc2c1CCC2,1.34%
8,CN(Cc1ccccc1)C(=O)Cn1ncc2c1-c1ccccc1OC2,1.72%
9,CC(C)(C)c1ccc(C(=O)Nc2ccc3[nH]c(O)nc3c2)cc1,19.3%
10,COC(=O)C1=C(C)N(Cc2ccccc2)C(=O)/C1=C\c1ccc(C)cc1,-3.4%
11,Cc1ccccc1NC(=O)C(C)N1C(=O)c2ccccc2C1=O (stereo not drawn),-7.89%
12,O=C(NCc1ccco1)c1cccc(N2C(=O)C3C4C=CC(C5CC45)C3C2=O)c1 (stereo not drawn),-0.994%
13,O=C(/C=C/c1ccc2c(c1)OCO2)NCCc1nc2ccccc2[nH]1,0.736%
14,CN1CCN(c2ccc3nnc(CCC(=O)NCCC4=CCCCC4)n3n2)CC1,-7.42%
15,COc1ccc(-c2cc(C)no2)cc1S(=O)(=O)N1CCN(Cc2ccc3c(c2)OCO3)CC1,-2.31%
16,Cc1cc(SC(C)C(=O)O)nc2ccccc12 (stereo not drawn),-0.169%
17,Clc1cccc(Nc2nc3nonc3nc2N2CCCCC2)c1,-1.28%
18,CCOC(=O)N1CCN(CC2=CC[C@H]3C[C@@H]2C3(C)C)CC1,-0.292%
19,O=C(NCC1(c2ccccc2)CCCC1)C(c1ccccc1)c1ccccc1,-1.99%
20,OC1=C2C(=Nc3nc(SCc4ccccc4)nc(O)c3C2c2cccs2)CCC1 (stereo not drawn),-2.04%
21,COc1ccc(-c2nc(CNS(=O)(=O)N(C)C)cs2)cc1,-2.67%
